In all, about 33,000 sequences were measured (“E-score (-0.5 to 0.5)”: median about -0.01, highest 2% from about 0.26 on). Some of the results follow.
biological target: Ste12 (UniProt P13574); test: PBM E-score (8-mer binding enrichment) (E-score (-0.5 to 0.5)); higher = stronger / more preferred TF binding; most listed sequences are background and not binding sites; conditions: protein concentration: 200 nM; construct: GST-DNA-binding domain
Procedure, shortened: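 GST-tagged yeast TFs (full-length or DNA-binding domain) were made by PURExpress in vitro transcription/translation and applied at about 100-200 nM to universal all-10-mer Agilent arrays. The arrays were made double-stranded by primer extension, on fresh or once-stripped slides. Bound protein was detected with fluorescent anti-GST, and scans were normalised with masliner. Each ungapped eight-base word, pooled with its reverse complement, received an E-score (modified Wilcoxon-Mann-Whitney statistic) from the Universal PBM Analysis Suite.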

Point of comparison: CGAGCGAG, “PBM E-score” value 0.145. Against it:
- AGATGTAC — lower, -0.11
- ATTAAATA — higher, 0.292
- ATACAGGC — lower, 0.063
- CCTGCAAC — lower, 0.101
- CTCTACAC — lower, -0.11
- ACCAGGTC — lower, -0.0684
- AGACGAAC — lower, 0.00631
- GGGCTCAC — lower, -0.243
- CATGTGGA — lower, -0.047
- ATCACACC — lower, 0.116
- CGATTCAA — lower, 0.0422
- ACGAATCT — higher, 0.165
- GCCACAAA — lower, 0.0992
- CAGACCGA — lower, 0.072
- CTTGATCA — lower, 0.12
- AAGGTCCC — lower, -0.279
- ACGGTAAC — higher, 0.155
- ATCCGGGA — lower, -0.12
- GCTCTGAA — lower, 0.0178
- AGTGTCCG — lower, -0.151
- ATAGTCAC — lower, 0.0501
- AGGATATC — lower, -0.109
- ATCTGAAT — lower, 0.0272
- CCGTTGCC — lower, -0.253
- CCCGGCGC — lower, -0.132
- AGGGGGAG — lower, -0.182
- AGCCGTTG — lower, -0.24
- ACTGAAGA — lower, 0.142
- AAATCCTA — higher, 0.229
- AGAACCGG — lower, 0.012
- ACGCCTCC — lower, -0.166
- ATCCCCAG — lower, -0.149
- CACCGAAA — higher, 0.146
- CTCACAGC — lower, -0.0675
- ACCAATTG — lower, -0.0793
- ATCTGCGG — lower, 0.0963
- CATAGGAG — lower, 0.0327
- ACTAACCA — lower, 0.114
- GCGCCTAA — lower, -0.0168
- ACCCGACG — lower, 0.0962
- AGAGATTA — lower, 0.132
- AGTCATTG — lower, -0.0744
- CCACGGCA — lower, 0.14
- TCAGGCCA — lower, 0.0237
- AGTGTTAG — lower, 0.0172
- TAAGGCAA — lower, 0.0326
- ATACCTTA — lower, 0.128
- AGCGGAAA — lower, 0.123
- ACTCTCAT — lower, -0.141
- CCATGTAA — lower, 0.0304
- AGATACCA — higher, 0.155
- CCGAACTC — lower, -0.0154
- AGTGCAGG — lower, -0.0794
- GGCTGTCA — lower, -0.245
- ACAGGGAG — lower, -0.087
- GAATCTGA — lower, -0.0846
- TCACACAA — lower, 0.0137
- AACGCACG — higher, 0.146
- ACAATTTA — higher, 0.163
- ATGCGACA — higher, 0.24
- ACACCCTC — lower, -0.0664
- GGCCGGCC — lower, 0.0742
- GCGAACGA — lower, -0.0265
- CTTCTGCA — lower, -0.0176
- AATCCCGG — lower, 0.0977
- GGCAGCAA — lower, 0.0858
- CTTGCGGC — lower, -0.217
- CTCCAGGC — lower, -0.185
- GATCCGAC — lower, -0.176
- ACTCGGCT — lower, -0.0881
- CGGCAGCC — higher, 0.224
- AATCTTAC — lower, 0.117
- AGTCCATA — lower, -0.0853
- CGTATTCC — lower, 0.073
- GCAGACCC — lower, -0.168
- CATGGTGG — lower, -0.0711
- AACTCGGA — lower, 0.0603
- AGACGTCA — lower, -0.137
- CTTTCCAA — higher, 0.186
- AAGCACAT — lower, -0.0896
- AAGATGTC — lower, -0.0718
- AATCGTGT — lower, 0.0806
- AAGTTTGA — higher, 0.221
- CACGAGCC — lower, -0.0409
- ACGTCCGA — lower, -0.0639
- AGTCTTAC — lower, -0.132
- AGCTTGCA — lower, -0.163
- AATTTAAC — higher, 0.208
- CACACTAC — lower, -0.066
- GTCCCGTA — lower, -0.156
- ATCCACGG — lower, -0.125
- CCGTATCC — lower, -0.0568
- CATGTGCC — lower, -0.0606
- AATTTGCA — lower, -0.0162
- GCGTAACA — lower, -0.0008
- GTCAAACA — lower, 0.0675
- CCCATGGC — lower, -0.138
- CAGGGGCA — lower, -0.11
- CTCCTTCA — lower, -0.185
- AGGGATAT — lower, -0.0901
- AGTTTGTG — lower, -0.0309
- CTCATGAA — lower, 0.1
- ATAAACAA — lower, 0.13
- ATTATTCG — higher, 0.21
- ACCCCGTG — lower, 0.0718
- CGTAATAC — lower, 0.0163
- CCGCTGGA — lower, -0.0851
- GTAAGGAA — lower, -0.17
- TTAAAAAA — higher, 0.294
- GTAGCATA — lower, 0.0916
- CGCATACC — lower, 0.125
- AAGGCATG — lower, -0.186
- AGGCGTAA — lower, -0.193
- AAACCTGT — lower, 0.00578
- ACTAGCAT — lower, -0.0896
- ACATATTC — lower, 0.09
- CAGACGGA — lower, 0.0125
- CTCAATTA — higher, 0.189
- CGACACGA — higher, 0.159
- AACGAAGC — lower, 0.0326
- CCTTCTCC — lower, -0.0919
- CCAACGTC — lower, 0.00728
- ATCCTCAT — lower, -0.106
- AGGCAGTC — lower, -0.245
- GGTCCGCA — lower, -0.111
- ACCTGCAT — lower, -0.146
- CTAATAAG — lower, -0.0045
- AGGTTGAC — lower, 0.134
- AAGGATTA — lower, 0.0233
- GTACATTA — lower, 0.0532
- CTAGTTAC — lower, 0.0278
- AACTTGCG — lower, -0.0915
- ATCAGACA — lower, 0.111
- AACGGGCT — lower, -0.0831
- GGTGATTA — lower, 0.0267
- ACCCTCCA — lower, -0.0426
- AATCGGCC — lower, -0.0936
- CCGATCCA — lower, -0.0596
- AGCAACCG — lower, -0.187
- CATCAGGG — lower, -0.0388
- CACGCTGG — lower, -0.226
- CAAGTACA — lower, -0.0437
- CTGACTTC — lower, 0.0769
- GGCCCCAC — lower, -0.181
- AAAGTTTC — higher, 0.329
- GAGTCGCA — lower, -0.168
- CAGGTGAG — lower, -0.199
- GGCAATGA — lower, -0.192
- CCCGAGCA — lower, -0.0155
- CGGACAAC — lower, 0.0563
- ATAGTGAA — lower, 0.0898
- GAGTACAA — lower, -0.0915
- GGAATCAA — lower, 0.0809
- ACACGCCC — lower, -0.0615
- GACATGGC — lower, -0.244
- CATACCCG — higher, 0.148
- GACCCGGA — lower, -0.116
- CCAAGTGC — lower, -0.206
- GTAATGCA — lower, -0.225
- TCCCAAGA — lower, -0.0561
- GACCGGCA — lower, -0.0447
- GTGATGAA — lower, 0.0296
- ACCTACAC — lower, -0.023
- ACACGGGT — lower, -0.0408
- ATTCAGTA — lower, 0.0571
- ATGTCTTA — lower, 0.134
- CCAGCTAA — lower, -0.153
- CCAGAGTC — lower, -0.161
- GTAACGCA — lower, 0.107
- AAAAGCTG — lower, -0.0886
- ACAAACAT — lower, 0.0989
- CGAACGGA — lower, 0.0575
- CACATGAC — lower, -0.0466
- AATAATGT — lower, 0.14
- GTCTGGGA — lower, -0.135
- AAATAGAA — lower, -0.0326
- CCCTTGGC — lower, -0.274
- AAATATTC — lower, 0.14
- GGGTAACC — lower, -0.0955
- CGAGTAAA — lower, 0.0807
- AGGTGTAG — lower, -0.149
- CATGCAGA — lower, -0.145
- AATCGTAT — lower, 0.0969
- CTAGGCTA — lower, -0.00684
- AGCGGCAC — lower, -0.16
- CGCGTTTC — higher, 0.234
- AGCGGTGC — lower, -0.014
- GATATTAC — higher, 0.185
- AGAACACG — lower, 0.0904
- AACGCGTA — lower, 0.0194
- GGCGTTGA — lower, -0.0188
- CAACACAG — lower, 0.116
- GTTACTGA — lower, -0.0623
- GGCCGAGA — lower, -0.0889
- TGCTGGAA — lower, -0.0637
- ACCTTGCC — lower, -0.0234
- ACGCCAAC — lower, -0.0312
- GAGTCGCC — lower, -0.332
- ACTATTCC — higher, 0.172
- ATGTGCGG — lower, -0.0669
- GGTACTGA — lower, -0.134
- CGGTTGAG — lower, -0.0435
- AAGTCGGT — lower, -0.0505
- GCGCTAAA — lower, 0.0404
- GTTCGTTA — lower, 0.0617
- CGATTTAG — lower, 0.072
- GGCACTAC — lower, -0.233
- AAACTGCA — higher, 0.223
- CGCTCTAG — lower, -0.0816
- CAGGACGA — lower, -0.108
- AGGTTCCC — lower, -0.258
- AATTGACC — lower, 0.0858
- CGCACTAG — lower, -0.0304
- CTATCCCC — lower, -0.00854
- CAGTATTA — higher, 0.196
- ACGAGAAT — lower, 0.0807
- AACATCCC — lower, 0.0232
- GGGACGCA — lower, -0.162

Source: the supplement of paper PMC3334620
